Measurements: patent publication US20230151111A1 (AKESO BIOPHARMA, published 2023)

T1: human NT5E(1-552)-his (human, UniProt P21589 27-552)
T1 construct: The entry starts at Met 1
T1 sequence: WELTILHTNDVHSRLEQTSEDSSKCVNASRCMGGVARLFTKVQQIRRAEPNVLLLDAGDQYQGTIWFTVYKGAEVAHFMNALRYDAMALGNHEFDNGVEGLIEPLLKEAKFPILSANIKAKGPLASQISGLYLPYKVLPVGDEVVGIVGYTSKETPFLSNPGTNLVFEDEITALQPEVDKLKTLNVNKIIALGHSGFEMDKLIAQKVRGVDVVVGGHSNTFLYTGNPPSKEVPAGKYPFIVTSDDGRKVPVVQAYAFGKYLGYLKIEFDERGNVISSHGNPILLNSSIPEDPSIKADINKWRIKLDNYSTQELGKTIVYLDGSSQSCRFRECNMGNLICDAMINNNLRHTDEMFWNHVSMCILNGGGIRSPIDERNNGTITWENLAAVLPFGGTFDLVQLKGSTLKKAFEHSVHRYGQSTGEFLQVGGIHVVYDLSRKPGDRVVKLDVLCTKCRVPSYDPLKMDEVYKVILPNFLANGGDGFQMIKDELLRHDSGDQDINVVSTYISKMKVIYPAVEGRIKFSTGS

T2: human NT5E-Biotin (human, UniProt P21589 27-552, limits assumed, biotin label, site not stated)
T2 construct: Captured on streptavidin-coated plates; also called human NTSE-Biotin
T2 sequence (looked up): T1 sequence

T3: CD73 on cell membrane surface (MDA-MB-231, U87-MG) (human, UniProt P21589 27-549)
T3 sequence (looked up): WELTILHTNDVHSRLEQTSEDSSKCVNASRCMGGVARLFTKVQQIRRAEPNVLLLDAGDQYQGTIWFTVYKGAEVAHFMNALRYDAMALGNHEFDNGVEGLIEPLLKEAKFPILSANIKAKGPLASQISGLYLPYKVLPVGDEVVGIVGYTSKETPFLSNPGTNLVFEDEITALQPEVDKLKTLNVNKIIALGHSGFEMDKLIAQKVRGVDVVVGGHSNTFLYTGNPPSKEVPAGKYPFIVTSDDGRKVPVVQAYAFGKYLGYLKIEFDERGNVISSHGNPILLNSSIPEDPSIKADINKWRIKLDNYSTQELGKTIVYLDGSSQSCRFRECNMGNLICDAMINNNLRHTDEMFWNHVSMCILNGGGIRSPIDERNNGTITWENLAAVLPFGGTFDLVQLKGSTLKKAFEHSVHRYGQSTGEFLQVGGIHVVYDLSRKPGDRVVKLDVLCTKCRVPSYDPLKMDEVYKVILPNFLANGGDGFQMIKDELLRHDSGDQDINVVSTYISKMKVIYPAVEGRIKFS

B1: NTPDV2 (bispecific antibody, human IgG1, kappa)
heavy: QVQLVQSGAEVVKPGASVKVSCKASGYSFTGYTMNWVRQAPGQNLEWIGLINPYNAGTSYNQKFQGKVTLTVDKSTSTAYMELSSLRSEDTAVYYCARSEYRYGGDYFDYWGQGTTLTVSSASTKGPSVFPLAPSSKSTSGGTAALGCLVKDYFPEPVTVSWNSGALTSGVHTFPAVLQSSGLYSLSSVVTVPSSSLGTQTYICNVNHKPSNTKVDKKV[human IgG1 Fc with L234A L235A G237A (EU numbers) omitted]GGGGSGGGGSGGGGSGGGGSEVQLVESGGGLVQPGGSLRLSCAASGFAFSSYDMSWVRQAPGKGLDWVATISGGGRYTYYPDSVKGRFTISRDNSKNNLYLQMNSLRAEDTALYYCANRYGEAWFAYWGQGTLVTVSSGGGGSGGGGSGGGGSGGGGSDIQMTQSPSSMSASVGDRVTFTCRASQDINTYLSWFQQKPGKSPKTLIYRANRLVSGVPSRFSGSGSGQDYTLTISSLQPEDMATYYCLQYDEFPLTFGAGTKLELKR
light: DIVMTQSPSSLAVSVGERVTISCKSSQSLLNSSNQKNYLAWYQQKPGQAPKLLIYFASTRESGVPDRFSGSGSGTDFTLTISSLQAEDVAVYYCQQHYDTPYTFGGGTKLEIKRTVAAPSVFIFPPSDEQLKSGTASVVCLLNNFYPREAKVQWKVDNALQSGNSQESVTEQDSKDSTYSLSSTLTLSKADYEKHKVYACEVTHQGLSSPVTKSFNRGEC
notes: also called NTPDV2(hG1TM)
B2: NTPDV4 (bispecific antibody, human IgG1, kappa)
heavy: B1 heavy
light: B1 light with L84V, V91D
notes: also called NTPDV4(hG1TM)
B3: NTPDV1 (bispecific antibody, human IgG1, kappa)
heavy: QVQLVQSGAEVVKPGASVKVSCKASGYSFTGYTMNWVRQAPGQNLEWIGLINPYNAGTSYNQKFQGKVTLTVDKSTSTAYMELSSLRSEDTAVYYCARSEYRYGGDYFDYWGQGTTLTVSSASTKGPSVFPLAPSSKSTSGGTAALGCLVKDYFPEPVTVSWNSGALTSGVHTFPAVLQSSGLYSLSSVVTVPSSSLGTQTYICNVNHKPSNTKVDKKV[human IgG1 Fc with L234A L235A G237A (EU numbers) omitted]GGGGSGGGGSGGGGSGGGGSEVQLVESGGGLVQPGGSLRLSCAASGFAFSSYDMSWVRQAPGKGLDWVATISGGGRYTYYPDSVKGRFTISRDNSKNNLYLQMNSLRAEDTALYYCANRYGEAWFAYWGQGTLVTVSSGGGGSGGGGSGGGGSDIQMTQSPSSMSASVGDRVTFTCRASQDINTYLSWFQQKPGKSPKTLIYRANRLVSGVPSRFSGSGSGQDYTLTISSLQPEDMATYYCLQYDEFPLTFGAGTKLELKR
light: B1 light
notes: Morrison form IgG-scFv, Fc with L234A/L235A/G237A; also called NTPDV1(hG1TM)
B4: NTPDV3 (bispecific antibody, human IgG1, kappa)
heavy: B3 heavy
light: B1 light with L84V, V91D
notes: Morrison form IgG-scFv; also called NTPDV3(hG1TM)

Experiments:
PD-1-mFc [1] = target: T4, PD-1-mFc (human, UniProt Q15116 in part, limits assumed); test: BLI (Fortebio), PD1-mFc on AMC sensor, antibody 0.62-50 nM, 30 C
T4 construct: also called human PD-1-mFc
Experimental: The sample dilution buffer was PBS (0.02% Tween-20, 0.1% BSA, pH 7.4). […] The data were analyzed by 1:1 model fitting to obtain affinity constants.

human NT5E(1-552)-his = target: T1, human NT5E(1-552)-his; test: BLI (Fortebio), NT5E(1-552)-his on HIS1K sensor, antibody 0.31-25 nM, 30 C
Experimental: The sample dilution buffer was PBS (0.02% Tween-20, 0.1% BSA, pH 7.4). […] The protein was dissociated in the buffer for 180 s. […] The data were analyzed by 1:1 model fitting to obtain affinity constants.

human PD-1-mFc-biotin [2] = target: T5, human PD-1-mFc-biotin (human, UniProt Q15116 in part, limits assumed, biotin label, site not stated); test: competitive ELISA, blocking of PD-1-mFc-biotin binding to coated PD-L1-mFc
Experimental: (§1) After incubation, the microplate was blocked with a PBS solution containing 1% BSA at 37° C. for 2 h. […] The antibody was serially diluted to 7 concentrations in a gradient ratio of 1:3 on a dilution plate with 10 μg/mL as the starting concentration, and a blank control was set. […] Then the mixture after reaction was added to the coated microplate, and the microplate was incubated for at 37° C. for 30 min. After incubation, the plate was washed three times with PBST and dried. SA-HRP (KPL, 14-30-00) working solution was added, and the plate was incubated at 37° C. for 30 min. After incubation, the plate was washed four times and patted dry. Then TMB (Neogen, 308177) was added in the dark for chromogenesis for 5 min, and a stop solution was added to terminate chromogenic reaction. Then the microplate was put into a microplate reader immediately, and the OD value of each well in the microplate was read at 450 nm. The data were analyzed and processed by SoftMax Pro 6.2.1.

PD-1-mFc [3] = target: T4, PD-1-mFc; test: ELISA, PD-1-mFc coated
Experimental: (§2) Then the microplate coated with antigens was washed once with PBST, and then blocked with a PBS solution containing 1% BSA as blocking solution at 37° C. for 2 h. After blocking, the microplate was washed 3 times with PBST. The microplate containing the test antibodies was incubated at 37° C. for 30 min, and then washed 3 times with PBST. […] The microplate was put into a microplate reader immediately, and the OD value of each well in the microplate was read at 450 nm. The data were analyzed and processed by SoftMax Pro 6.2.1.

human PD-1-mFc-biotin [4] = target: T5, human PD-1-mFc-biotin; test: competitive ELISA, competitor coated PD-L1-mFc; antibody 50 nM diluted 1:9
Experimental: as §1

human NT5E-Biotin = target: T2, human NT5E-Biotin; test: ELISA, NT5E-biotin on streptavidin
Experimental: After incubation, the microplate coated with streptavidin was washed once with PBST, and blocked with a PBS solution containing 1% BSA as a microplate blocking solution at 37° C. for 2 h. After blocking, the microplate was washed 3 times with PBST. […] Then, the plate was washed 3 times with PBST. […] The microplate containing the test antibodies was incubated at 37° C. for 30 min, and then washed 3 times with PBST. […] The microplate was put into a microplate reader immediately, and the OD value of each well in the microplate was read at 450 nm. The data were analyzed and processed by SoftMax Pro 6.2.1.

[5] = target: T3, CD73 on cell membrane surface …; test: cell-based or functional assay
PD-1-mFc [6] = target: T4, PD-1-mFc; test: ELISA, PD-1-mFc coated; antibody 5 nM
Experimental: as §2

human PD-1-mFc-biotin [7] = target: T5, human PD-1-mFc-biotin; test: competitive ELISA, competitor coated PD-L1-mFc; antibody 50 nM
Experimental: as §1

human PD-1-mFc-biotin [8] = target: T5, human PD-1-mFc-biotin; test: competitive ELISA, competitor coated PD-L1-mFc; antibody 50 nM diluted 1:3
Experimental: as §1

T5 sequence (Q15116 other isoform, or with tags, fused parts or gaps limits assumed): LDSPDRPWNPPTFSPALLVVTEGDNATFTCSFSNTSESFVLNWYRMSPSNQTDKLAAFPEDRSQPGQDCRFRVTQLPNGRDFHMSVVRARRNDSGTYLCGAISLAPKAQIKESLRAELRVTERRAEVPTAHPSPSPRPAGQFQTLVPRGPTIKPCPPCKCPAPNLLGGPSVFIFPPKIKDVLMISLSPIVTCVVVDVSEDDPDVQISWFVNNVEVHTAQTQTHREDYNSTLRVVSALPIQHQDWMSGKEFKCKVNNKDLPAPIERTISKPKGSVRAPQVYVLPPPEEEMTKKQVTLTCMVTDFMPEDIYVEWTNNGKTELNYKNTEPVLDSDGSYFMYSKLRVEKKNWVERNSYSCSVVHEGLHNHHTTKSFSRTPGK
T4 sequence (Q15116 other isoform, or with tags, fused parts or gaps limits assumed): as above

Row | Binder | Kd (PD-1-mFc [1]) | koff (PD-1-mFc [1]) | kon (PD-1-mFc [1]) | Kd (human NT5E(1-552)-his) | koff (human NT5E(1-552)-his) | kon (human NT5E(1-552)-his) | EC50 (human PD-1-mFc-biotin [2]) | EC50 (PD-1-mFc [3]) | OD450 (human PD-1-mFc-biotin [4]) | EC50 (human NT5E-Biotin) | IC50 (nM), inhibition of enzyme activity of CD73 on U87-MG cell membrane surface [5] | OD450 (PD-1-mFc [6]) | OD450 (human PD-1-mFc-biotin [7]) | OD450 (human PD-1-mFc-biotin [8])
1 | B1 | 0.0739 nM | 5.05e-05 s⁻¹ | 683000 M⁻¹ s⁻¹ | 0.0288 nM | 3.66e-05 s⁻¹ | 1.27e+06 M⁻¹ s⁻¹ | 2.33 nM | 0.119 nM | 0.204 OD | 0.082 nM | 0.555 nM | 2.25 OD |  | 
2 | B2 | 0.0113 nM | 6.03e-06 s⁻¹ | 535000 M⁻¹ s⁻¹ | 0.0577 nM | 7.09e-05 s⁻¹ | 1.23e+06 M⁻¹ s⁻¹ | 2.22 nM | 0.123 nM |  | 0.077 nM |  |  | 0.076 OD | 
3 | B3 | 0.14 nM | 8.55e-05 s⁻¹ | 609000 M⁻¹ s⁻¹ | 0.0329 nM | 3.8e-05 s⁻¹ | 1.16e+06 M⁻¹ s⁻¹ |  | 0.101 nM |  | 0.079 nM |  |  |  | 0.083 OD
4 | B4 | 0.125 nM | 8.35e-05 s⁻¹ | 668000 M⁻¹ s⁻¹ | 0.0792 nM | 0.000102 s⁻¹ | 1.28e+06 M⁻¹ s⁻¹ | 2.4 nM | 0.11 nM |  | 0.084 nM |  |  |  | 

Changes are numbered by the printed parent chain. Names may count otherwise.
